Measurements reported in PubChem BioAssay AID504339 (National Center for Advancing Translational Sciences (NCATS), 2011).
The campaign covered roughly 390,000 compounds. About 17,000 (4.4%) were called active. Inconclusive results, whose numbers are uncertain, are shown with a selection of clear calls. Calls follow the shape of the dose curve; as a rule, active = well fitted inhibition curve with a large enough effect; inconclusive = small, poorly fitted or top-dose-only effect; inactive = no such curve, though single readings can be large or run the other way. Potencies beside an inconclusive call are fits to weak or partial responses and may not hold up.

target: Lysine-specific demethylase 4A (Homo sapiens) (UniProt O75164); test: qHTS Assay for Inhibitors of JMJD2A-Tudor Domain; details: AlphaScreen JMJD2A-Tudor / H3K4me3 peptide binding; activity change, negative = inhibition: at 114 µM (top of the series); also: nearly all actives have a fitted effect of over 50% in size
% is scaled to controls: 0 for no effect and ±100 for the full control effect; potency is read from the fitted curve at half-maximal effect; tags tell the direction and shape of the fitted curve.

UniProt O75164, sequence (O75164 whole entry, looked up, the tested form may be a part): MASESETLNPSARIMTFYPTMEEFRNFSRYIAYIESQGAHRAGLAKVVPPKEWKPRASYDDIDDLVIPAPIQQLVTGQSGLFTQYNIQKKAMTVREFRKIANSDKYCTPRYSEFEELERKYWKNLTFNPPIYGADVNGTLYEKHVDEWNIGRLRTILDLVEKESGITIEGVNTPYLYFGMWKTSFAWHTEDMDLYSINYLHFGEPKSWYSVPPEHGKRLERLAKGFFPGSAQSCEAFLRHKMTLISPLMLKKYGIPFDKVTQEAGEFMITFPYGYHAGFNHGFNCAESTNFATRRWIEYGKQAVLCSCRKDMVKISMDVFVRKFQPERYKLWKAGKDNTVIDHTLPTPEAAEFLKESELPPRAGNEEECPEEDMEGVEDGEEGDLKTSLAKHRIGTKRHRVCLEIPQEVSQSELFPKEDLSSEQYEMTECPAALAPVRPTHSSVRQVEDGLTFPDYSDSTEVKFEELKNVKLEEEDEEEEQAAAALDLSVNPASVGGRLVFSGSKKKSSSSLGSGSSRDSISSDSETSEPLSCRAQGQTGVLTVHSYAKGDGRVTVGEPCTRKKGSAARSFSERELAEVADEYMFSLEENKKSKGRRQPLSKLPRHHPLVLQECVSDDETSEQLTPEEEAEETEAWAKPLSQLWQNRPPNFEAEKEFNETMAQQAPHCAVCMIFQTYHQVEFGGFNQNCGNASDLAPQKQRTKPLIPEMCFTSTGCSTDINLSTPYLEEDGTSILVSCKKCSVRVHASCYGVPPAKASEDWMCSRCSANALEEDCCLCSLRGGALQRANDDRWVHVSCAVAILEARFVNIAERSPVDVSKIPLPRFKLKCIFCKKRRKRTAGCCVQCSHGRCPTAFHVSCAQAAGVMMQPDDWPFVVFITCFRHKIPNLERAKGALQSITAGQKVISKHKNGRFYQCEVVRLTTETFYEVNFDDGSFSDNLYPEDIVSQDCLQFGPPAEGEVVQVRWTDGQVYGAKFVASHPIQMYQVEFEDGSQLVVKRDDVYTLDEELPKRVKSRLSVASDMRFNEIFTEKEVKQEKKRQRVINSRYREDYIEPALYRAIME

Question: COc1cc(CNc2cc(C)ccc2C)cc(OC)c1OC was tested. Which Potency did it give?
Answer: inconclusive: 79.4 µM [inhibitor, partial curve]

Question: Which Potency does the source give for S=c1[nH]nc(COc2ccc(Cl)cc2)n1-c1ccc(Cl)cc1 here?
Answer: inconclusive: 56.2 µM [inhibitor, partial curve]

Question: Which “activity change, negative = inhibition” value does the source give for Cc1cccc(N2CCN(c3ncnc4c3cnn4-c3ccc(Cl)cc3)CC2C)c1 (stereo unspecified) here?
Answer: inactive: -22%

Question: How did the Potency turn out when O=C1/C(=C\c2ccc3c(c2)OCO3)CCC/C1=C/c1ccc2c(c1)OCO2 was run?
Answer: inconclusive: 14.1 µM [inhibitor, full curve]

Question: Which “activity change, negative = inhibition” value does the source give for O=C(O)c1cc(-c2ccccc2)on1 here?
Answer: inactive: -6.63%

Question: Which Potency does the source give for Cc1[nH]c2ccccc2c1/C=N/Nc1ccccc1[N+](=O)[O-] here?
Answer: active: 22.4 µM

Question: C/C(=N\NC(=S)Nc1cc(S(=O)(=O)N2CCOCC2)ccc1Cl)c1ccc(N2CCOCC2)cc1 was tested. Which “activity change, negative = inhibition” value did it give?
Answer: inactive: -28.4%

Question: How did the Potency turn out when c1ccc(-c2nnc(-c3ccccn3)nc2NC2CCCCC2)cc1 was run?
Answer: active: 3.16 µM

Question: O=C(NCCNc1ccc([N+](=O)[O-])cc1)c1ccco1 was tested. Which Potency did it give?
Answer: inconclusive: 35.5 µM [inhibitor, partial curve]

Question: Which Potency does the source give for CC(=C\c1ccccc1)/C=C1/SC(=S)N(C(C(=O)O)C(C)C)C1=O (stereo unspecified) here?
Answer: inconclusive: 28.2 µM [inhibitor, partial curve]

Question: With O=c1[nH]c2ccccc2c(O)c1-c1ccccc1 as the molecule, how does the “activity change, negative = inhibition” value read?
Answer: inactive: -4.76%

Question: Which “activity change, negative = inhibition” value does the source give for CCOc1ccc(-n2nc3ccc(NC(=O)c4ccc(C)cc4C)cc3n2)cc1 here?
Answer: inactive: -17.9%

Question: CCn1c(CNc2ccc(C)cc2C)nnc1SCC(=O)N1CCCc2ccccc21 was tested. Which Potency did it give?
Answer: inconclusive: 50.1 µM [inhibitor, partial curve]

Question: With Cc1nonc1OCCCNc1ccc([N+](=O)[O-])cc1Cl as the molecule, how does the “activity change, negative = inhibition” value read?
Answer: inactive: -25.7% [at 57.1 µM]

Question: How did the Potency turn out when CC(=O)NCCC(=O)N(C)CC1CCN(CCc2cccc(C(F)(F)F)c2)CC1 was run?
Answer: inconclusive: 15.8 µM [inhibitor, full curve, poor fit]

Question: For COc1ccc(OC)c(-c2csc(NC(=O)Cc3ccc(OC)c(OC)c3)n2)c1, which Potency is on record?
Answer: inconclusive: 56.2 µM [inhibitor, partial curve]

Question: With COc1ccc(OC)c(NC(=O)Cn2c(CCC(=O)O)ccc2-c2ccccc2)c1 as the molecule, how does the Potency read?
Answer: inconclusive: 89.1 µM [inhibitor, single point]

Question: With Cc1cccc(Nc2nc(-c3ccc4c(c3)OCCO4)cs2)c1 as the molecule, how does the Potency read?
Answer: inconclusive: 63.1 µM [inhibitor, partial curve, poor fit]

Question: How did the Potency turn out when Cn1cc(P(=S)(N2CCOCC2)N2CCOCC2)cc1P(=O)(N1CCOCC1)N1CCOCC1 was run?
Answer: inconclusive: 89.1 µM [inhibitor, partial curve]

Question: With COc1cc(/C=C2\CC(C(C)(C)C)C/C(=C\c3cc(OC)c(OC)c(OC)c3)C2=O)cc(OC)c1OC (stereo unspecified) as the molecule, how does the Potency read?
Answer: inconclusive: 39.8 µM [inhibitor, partial curve]

Question: COc1ccc(Cn2nnnc2C(c2ccccc2)N2CCN(c3ccccc3)CC2)cc1 (stereo unspecified) was tested. Which Potency did it give?
Answer: inconclusive: 39.8 µM [inhibitor, partial curve]

Question: How did the Potency turn out when O=S(=O)(c1ccccc1)c1nc(-c2ccccc2Cl)oc1NCCN1CCOCC1 was run?
Answer: inconclusive: 56.2 µM [inhibitor, partial curve]

Question: How did the Potency turn out when CC(=S)/C=C1\Sc2ccccc2N1C was run?
Answer: inconclusive: 50.1 µM [inhibitor, partial curve]

Question: Which Potency does the source give for Cc1ccc(C)c(N2CCN(S(=O)(=O)c3c(C(=O)N4CCCCC4)c(C)n(C)c3C)CC2)c1 here?
Answer: inconclusive: 44.7 µM [inhibitor, partial curve]

Question: With Cc1cccnc1NC(=O)C(C)Oc1ccccc1 (stereo unspecified) as the molecule, how does the “activity change, negative = inhibition” value read?
Answer: inactive: -8.95%

Question: For COc1cccc(N2CCN(c3ncnc4c3[nH]c3ccc(F)cc34)CC2C)c1 (stereo unspecified), which Potency is on record?
Answer: inconclusive: 50.1 µM [inhibitor, partial curve]

Question: For Cc1cc(C(=O)COC(=O)C2=NNC(=O)CC2)c(C)n1-c1cccc(C(F)(F)F)c1, which Potency is on record?
Answer: inconclusive: 56.2 µM [inhibitor, partial curve]

Question: COc1ccc(Cl)cc1NC(=O)c1sc2nc3c(cc2c1N)CN(C)CC3 was tested. Which “activity change, negative = inhibition” value did it give?
Answer: inactive: -8.42%

Question: Which Potency does the source give for Cc1ccc(C)n1-c1ccc(N(C)C)cc1 here?
Answer: active: 50.1 µM

Question: How did the Potency turn out when CCN1CCCC1CNC(=O)c1ccc2c(c1)NC(=O)/C(=C\c1ccc(OC)c(OC)c1)S2 (stereo unspecified) was run?
Answer: active: 28.2 µM

Question: Which “activity change, negative = inhibition” value does the source give for C=CCNc1nc(SCC=C)nc2ccsc12 here?
Answer: inactive: 0.676%

Question: For COc1ccc(Nc2ccc(S(=O)(=O)N3CCCCC3)cc2[N+](=O)[O-])cc1OC, which Potency is on record?
Answer: inconclusive: 12.6 µM [inhibitor, partial curve]

Question: For O=C(Nc1ccccc1)C1Cc2ccccc2CN1C(=O)c1ccco1 (stereo unspecified), which Potency is on record?
Answer: inconclusive: 79.4 µM [inhibitor, single point]

Question: Which Potency does the source give for O=C1C=C(NCCc2cc(Br)c(O)c(Br)c2)C(=O)c2ncccc21 here?
Answer: active: 28.2 µM

Question: Which Potency does the source give for C=CCc1ccc(OCCCCCN2CCOCC2)c(OC)c1 here?
Answer: active: 3.55 µM

Question: Which Potency does the source give for Cc1cc(C(=O)CSc2n[nH]c(N)n2)c(C)n1-c1ccc(F)cc1 here?
Answer: inconclusive: 50.1 µM [inhibitor, partial curve]

Question: For CCN(CCCNC(=O)Cn1ncc2c3ccccc3n(C)c2c1=O)c1cccc(C)c1, which “activity change, negative = inhibition” value is on record?
Answer: inactive: -10.4%

Question: For COCCn1cnc2c1-c1ccc(OC)c(c1)OC/C=C\COc1cccc-2c1, which Potency is on record?
Answer: inconclusive: 56.2 µM [inhibitor, partial curve, poor fit]

Question: O=C1Nc2ccccc2C1(O)C/C(=N/O)c1ccccc1 (stereo unspecified) was tested. Which Potency did it give?
Answer: active: 20 µM

Question: CC(NC(=O)/C(C#N)=C/c1ccc([N+](=O)[O-])o1)c1ccccc1 (stereo unspecified) was tested. Which Potency did it give?
Answer: inconclusive: 63.1 µM [inhibitor, partial curve]

Question: For O=S(=O)(NCCc1cn2ccsc2n1)c1ccc(Cl)cc1, which “activity change, negative = inhibition” value is on record?
Answer: inactive: -20.6%

Question: How did the Potency turn out when CCOC(=O)c1cnc(-n2nc(C)cc2C)nc1Nc1ccc(N(C)C)cc1 was run?
Answer: active: 1.12 µM

Question: With CCCCCCc1cc2cc(-c3cn4c(n3)sc3cc(OC)ccc34)c(=O)oc2cc1O as the molecule, how does the “activity change, negative = inhibition” value read?
Answer: inactive: -22.7%

Question: How did the Potency turn out when CCOc1ccc(-n2cc(-c3ccc(OC)c(OC)c3)[nH]c2=S)cc1 was run?
Answer: active: 11.2 µM

Question: Nc1ccc(Cc2ccc([N+](=O)[O-])cc2)cc1 was tested. Which Potency did it give?
Answer: inconclusive: 63.1 µM [inhibitor, partial curve, poor fit]

Question: With COC(=O)c1ccc(NC(=S)NC(=O)c2cccnc2)cc1 as the molecule, how does the “activity change, negative = inhibition” value read?
Answer: inactive: -3.47%

Question: With Cc1ccc(C(=O)c2sc(Nc3ccc(F)cc3)nc2N)c(C)c1 as the molecule, how does the Potency read?
Answer: active: 79.4 µM

Question: For Cc1nc(-c2ccccc2)sc1C1(C)CC(c2cccc([N+](=O)[O-])c2)=NO1 (stereo unspecified), which Potency is on record?
Answer: inconclusive: 39.8 µM [inhibitor, partial curve]

Question: For CCN1CCN(c2ccc(NC(=O)c3cc(S(=O)(=O)N4CCCC4)ccc3Cl)cc2)CC1, which Potency is on record?
Answer: inconclusive: 50.1 µM [inhibitor, partial curve]

Question: With Cc1cc(-c2nc(-c3ccncc3)no2)ccc1[N+](=O)[O-] as the molecule, how does the Potency read?
Answer: inconclusive: 20 µM [inhibitor, full curve, poor fit]

Question: With O=C(CS(=O)(=O)c1ccccc1)Nc1ccccc1Br as the molecule, how does the Potency read?
Answer: inconclusive: 20 µM [inhibitor, full curve, poor fit]

Question: How did the Potency turn out when CC1CC(C)CN(C(=O)CCc2nnc3ccc(N4CCCCC4)nn23)C1 (stereo unspecified) was run?
Answer: active: 39.8 µM

Question: How did the Potency turn out when CCOc1ccc(N=C2SC(C(=O)Nc3ccccc3C#N)C(N)=C2C(=O)Nc2ccc(Cl)cc2)cc1 (stereo unspecified) was run?
Answer: inconclusive: 44.7 µM [inhibitor, partial curve]

Question: How did the “activity change, negative = inhibition” value turn out when O=C(CN1N=C(c2ccccc2)CCC1=O)NCc1ccc(F)cc1Cl was run?
Answer: inactive: -7.34%

Question: O=C1C=CC(=O)N1c1cccc(-c2ccccc2)c1 was tested. Which Potency did it give?
Answer: active: 50.1 µM

Question: CCOc1cc(C(=O)N2CCCC2)cc(OCC)c1OCC was tested. Which “activity change, negative = inhibition” value did it give?
Answer: inactive: 2.32%

Question: How did the Potency turn out when Cc1ccc(C(=O)Nc2ccc(S(=O)(=O)NCc3ccco3)cc2)cc1 was run?
Answer: inconclusive: 79.4 µM [inhibitor, partial curve]

Question: O=C(CSc1ncnc2c1oc1ccccc12)Nc1ccccc1C(F)(F)F was tested. Which Potency did it give?
Answer: inconclusive: 50.1 µM [inhibitor, full curve, poor fit]

Question: For CCCCn1c(=S)[nH]c2cc(S(=O)(=O)N3CCOCC3)ccc21, which Potency is on record?
Answer: inconclusive: 35.5 µM [inhibitor, partial curve]

Question: For O=C(COc1ccc(Cl)cc1)NCc1ccc(F)cc1, which Potency is on record?
Answer: inconclusive: 31.6 µM [inhibitor, single point]

Question: With O=C(Nc1ccc(Cl)c(C(F)(F)F)c1)C(Cc1ccccc1)NS(=O)(=O)c1cccc2nsnc12 (stereo unspecified) as the molecule, how does the “activity change, negative = inhibition” value read?
Answer: inactive: -13.3%

Question: Which Potency does the source give for COc1ccc(Nc2cc(C(=O)NCCCN(C)C3CCCCC3)c3ccccc3n2)c(OC)c1 here?
Answer: active: 20 µM

Question: With COc1cccc(-n2c(SCC(N)=O)nc3ccccc3c2=O)c1 as the molecule, how does the “activity change, negative = inhibition” value read?
Answer: inactive: -8.45%

Question: COc1cc(N(Cc2ccccc2)Cc2ccccc2)c2ncn(C(C)C)c2c1 was tested. Which Potency did it give?
Answer: inconclusive: 28.2 µM [inhibitor, partial curve]

Question: Which Potency does the source give for COc1cccc(CC(=O)Nc2ccc(S(=O)(=O)Nc3nc(C)cc(C)n3)cc2)c1 here?
Answer: inconclusive: 10 µM [inhibitor, partial curve]

Question: Which Potency does the source give for C=CCn1c(C)cc(C(=O)COC(=O)/C=C/c2c(C)nn(C3CCS(=O)(=O)C3)c2Cl)c1C (stereo unspecified) here?
Answer: inconclusive: 44.7 µM [inhibitor, partial curve]

Question: COc1ccc(CSCCc2n[nH]c(=S)n2-c2ccccc2)cc1C was tested. Which Potency did it give?
Answer: inconclusive: 11.2 µM [inhibitor, single point]

Question: How did the Potency turn out when COc1ccc(OC)c(CN2CCC(CNC(=O)Nc3cccc(Cl)c3)CC2)c1 was run?
Answer: inconclusive: 50.1 µM [inhibitor, partial curve]

Question: Which Potency does the source give for O=C(C(c1ccccc1)c1ccccc1)N1CCN(CCN2C(=O)c3cccc4cccc(c34)C2=O)CC1 here?
Answer: inconclusive: 56.2 µM [inhibitor, partial curve, poor fit]

Question: For Cc1cc(C(=O)CN2C(=O)C3CC=CCC3C2=O)c(C)n1-c1ccccc1 (stereo unspecified), which Potency is on record?
Answer: inconclusive: 56.2 µM [inhibitor, partial curve]

Question: For COCCNC(=O)c1ccccc1NC(=O)CCSc1ccccc1, which “activity change, negative = inhibition” value is on record?
Answer: inactive: -0.968%
